Test results taken from PubChem BioAssay AID1457 (National Center for Advancing Translational Sciences (NCATS), 2008).
The campaign covered roughly 210,000 compounds. About 730 (0.35%) were called active. The shares of active, inactive and inconclusive entries below differ from those in the screen. The call rests on the fitted dose curve; in most records, active means well fitted inhibition curve with a large enough effect; inconclusive means small, poorly fitted or top-dose-only effect; inactive means no such curve, though single readings can be large or run the other way. A potency beside an inconclusive call is a rough fit, not a confirmed value.

assay: qHTS Assay for Identifying the Cell-Membrane Permeable IMPase Inhibitors: Potentiation with Lithium; conditions: CHO-M1 cells, IP1 TR-FRET (IP-One), carbachol + lithium; series mostly up to 59.4 µM; further: nearly all actives have a fitted effect of over 50% in size
Procedure, shortened: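 Concentration–response in CHO-M1 cells, lithium-potentiated; 30 min at 37C. IP1 detected by competitive TR-FRET after 10 min lysis at RT. Hill-fitted AC50.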
Potency means the concentration at half of the fitted maximal effect.

Potency, active:
COc1ccc(-n2c(-c3cccc(OC)c3)nc(=S)c3c2CCCC3)cc1 7.94 µM
COc1ccc(C(=O)Nc2ccc(N3CCN(c4ccc(OC)cc4)CC3)c(C#N)c2)cc1 1.78 µM
CCOc1ccc2cc(C(=O)c3ccccc3)c(=O)oc2c1 25.1 µM

Potency, inconclusive:
COc1cccc(Nc2nc3cc(OC)ccc3cc2C#N)c1 28.2 µM [inhibitor, single point]
N=c1c2cn[nH]c2nc(SCC(=O)c2ccc(Br)cc2)n1-c1ccc(Br)cc1 31.6 µM [inhibitor, single point]
Cc1ccc(-c2nc3cc(N)ccc3o2)c(C)c1 8.91 µM [inhibitor, partial curve]
Nc1nc2c(cnn2CCc2ccccc2)c2nc(-c3ccco3)nn12 28.2 µM [inhibitor, single point]
CCOc1ccc(-n2c(-c3ccco3)n[nH]c2=S)cc1 10 µM [inhibitor, partial curve]
CCCn1c(=O)c(-c2nc3ccccc3[nH]2)c(O)c2ccccc21 25.1 µM [inhibitor, single point]
COc1ccccc1-c1cc(C(=O)NCc2ccc(Cl)cc2)no1 12.6 µM [inhibitor, single point]
CCOc1ccc(CC(=O)Nc2sc(Cc3ccccc3)cc2C(N)=O)cc1OCC 22.4 µM [inhibitor, single point]
COCc1cc(C)nc(SCC(=O)Nc2ccc(C)c(C)c2)c1C#N 20 µM [inhibitor, single point]
CCOC(=O)/C(C#N)=C/c1ccc(OCC(=O)Nc2ccccc2)c(OC)c1 17.8 µM [inhibitor, single point]
CC(C)CC(=O)Nc1ccc(-c2nc3ccccc3c(=O)o2)cc1 31.6 µM [inhibitor, single point]
CCOC(=O)c1cc2sc(C)cc2n1CC(=O)N1CCc2ccccc21 28.2 µM [inhibitor, single point]
O=C(Nc1ccc(Cl)cc1)c1cnc(-c2ccccc2)nc1-c1ccccc1 28.2 µM [inhibitor, single point]
O=C1C(=O)N(CCO)C(c2cccc(F)c2)/C1=C(\O)c1ccc(Cl)cc1 (centres undefined) 28.2 µM [inhibitor, single point]
CCNc1ncc2nc(-c3ccc(F)cc3)c(=O)n(C[C@H]3CCCO3)c2n1 11.2 µM [inhibitor, single point]
Cc1cc(-c2nnc(SCc3ccccn3)o2)no1 11.2 µM [inhibitor, partial curve]
Cc1ccc(/C(O)=C2\C(=O)C(=O)N(c3cc(C)on3)C2c2cccc(Cl)c2)cc1 (centres undefined) 28.2 µM [inhibitor, single point]
CN(C)CCCN(C(=O)c1sc2ccccc2c1Cl)c1nc2c(F)cccc2s1 10 µM [inhibitor, partial curve]
O=C(Nc1cccn2ncnc12)c1ccc(Cl)cc1Cl 11.2 µM [inhibitor, single point]
COc1ccccc1C1/C(=C(/O)c2ccc(C)cc2)C(=O)C(=O)N1CC(C)O (centres undefined) 7.08 µM [inhibitor, partial curve]
COc1cc(/C=C2/C(=N)N3OC(C)=CC3=NC2=O)ccc1OC(=O)c1ccco1 3.16 µM [inhibitor, single point]
Cc1cnn(C(=O)c2cc(-c3ccccn3)nc3ccc(Cl)cc23)c1 28.2 µM [inhibitor, single point]
CC(C)=C1Cc2ccccc2C1=O 3.16 µM [inhibitor, single point]
CCNc1oc(-c2cccc3ccccc23)nc1C#N 31.6 µM [inhibitor, partial curve]
COc1ccc(C(=O)COC(=O)c2nn(C)c(=O)c3ccccc23)c(OC)c1 22.4 µM [inhibitor, single point]
O=C(Nc1ccccc1-c1nc2ccccc2s1)c1ccco1 10 µM [inhibitor, partial curve]
CC(C)Oc1ccc(-c2nn(-c3ccccc3)cc2/C=c2\sc3ncnn3c2=O)cc1 28.2 µM [inhibitor, single point]
COc1ccc(-c2c(C#N)c(N)nc3sc(C(=O)c4ccccc4)c(N)c23)cc1 15.8 µM [inhibitor, single point]
O=S(=O)(Nc1nc2ccccc2nc1Cl)c1ccc(Br)cc1 7.94 µM [inhibitor, partial curve]
Cc1ccc(-n2c(SCC(N)=O)nc3c(c2=O)C2(CCCC2)Cc2ccccc2-3)cc1 11.2 µM [inhibitor, partial curve]
CCOC(=O)c1cc(-c2ccc(OC(F)F)cc2)nc2c1c(=O)[nH]c(=O)n2C 31.6 µM [inhibitor, single point]
COc1ccc(-c2nc3cnc(OC)nc3n(Cc3cccs3)c2=O)cc1 22.4 µM [inhibitor, single point]
CCc1cc2c(=O)n(-c3ccccc3)c(=S)[nH]c2s1 10 µM [inhibitor, partial curve]
CSc1ccccc1-c1nnc(-c2ccc(Cl)cc2Cl)o1 28.2 µM [inhibitor, single point]
COc1ccc(C(=O)OCC(=O)Nc2nc3c(F)c(F)c(F)cc3s2)cc1OC 28.2 µM [inhibitor, single point]
O=C(CSc1nc2[nH]ncc2c(=O)[nH]1)c1ccc(Cl)cc1 22.4 µM [inhibitor, single point]
CCOc1ccc2[nH]c(=O)c(CN(Cc3ccco3)C(=O)c3cccc(F)c3)cc2c1 20 µM [inhibitor, single point]
C=CCOc1ccc(/C(O)=C2\C(=O)C(=O)N(CCCOC)C2c2ccncc2)cc1 (centres undefined) 10 µM [inhibitor, single point]
COc1ccccc1CCn1c(=O)c(-c2cc(F)cc(F)c2)nc2cncnc21 28.2 µM [inhibitor, single point]
CC1=NOC(=O)/C1=C\c1ccc(-c2cc(Cl)ccc2Cl)o1 1.26 µM [inhibitor, full curve]
CCCc1nc(SCC(=O)NNC(=O)C2CCCCC2)c2ccccc2n1 12.6 µM [inhibitor, partial curve]
O=C(O)C1=CC(=C(c2ccc(O)c(C(=O)O)c2)c2ccc(O)c(C(=O)O)c2)C=CC1=O 11.2 µM [inhibitor, single point]
COc1cccc(-n2nc3c(=S)[nH]nc(C)c3c2C)c1 7.08 µM [inhibitor, partial curve]
Cc1ccc(OCC(O)C(C)NC(C)C)c2c1CCC2 (centres undefined) 11.2 µM [inhibitor, partial curve]
CSc1nc(-c2ccc(Cl)cc2)c(C#N)c(=O)n1C 28.2 µM [inhibitor, single point]
NC(=O)c1sc2nc(-c3ccco3)ccc2c1N 20 µM [inhibitor, single point]

Potency, inactive:
O=C(NCc1ccccc1)C1=C[C@H](C2CC2)C[C@H](OCCCCO)O1
COCCCn1c(=O)/c(=C\c2ccccc2OC(F)F)s/c1=C(/C#N)C(N)=O
Cc1cnc(CNc2ccnc(-c3c(C)noc3C)n2)cn1
O=C(/C=C/c1ccc(O)c(O)c1)OC1C[C@](O)(C(=O)O)C[C@@H](O)[C@H]1O (some centres undefined)
CCN(CC)CCOCCOC(=O)C1(c2ccccc2)CCCC1
COc1ccnc(CSC(N)=Nc2ccccc2OC)c1
CC(NC(=O)c1nn(C)c(=O)c2ccccc12)c1ccccc1 (centres undefined)
COc1ccc(O[C@H]2C=C[C@@H](c3ccccc3)O[C@@H]2COC(=O)CC/C(C)=N/OC[C@@H](O)[C@H]2O[C@@H]3OC(C)(C)O[C@@H]3[C@H]2O)cc1
CN(C)c1ccc(NC(=O)CN2CCN(S(=O)(=O)c3cc(Cl)ccc3Cl)CC2)cc1
CCCc1cc(-c2n[nH]c(=S)n2CC)cs1
C=C(C)Cn1c(SCC(=O)N/N=C/c2ccccc2)nc2ccccc2c1=O
O=C(OCCCN=C1NS(=O)(=O)c2ccccc21)c1ccc([N+](=O)[O-])cc1
O=C(CSc1nc2cc(S(=O)(=O)N3CCOCC3)ccc2o1)NC1CCCc2ccccc21 (centres undefined)
Cc1ccc(OCCC(=O)OCC(=O)Nc2cc(S(=O)(=O)N(C)C)ccc2C)cc1
Cn1cc(C(F)(F)F)nc1-c1ccc(OCC(O)CNCCOc2ccc(O)c(C(N)=O)c2)cc1 (centres undefined)
CCS(=O)(=O)N1Cc2ccccc2CC1C(=O)Nc1nc2c(C)cccc2s1 (centres undefined)
Cc1cc(OCC(=O)NC(C)c2ccccc2)ccc1[N+](=O)[O-] (centres undefined)
CCOc1ccc(N(CC(=O)Nc2ccccc2C(=O)NC(C)CC)S(C)(=O)=O)cc1 (centres undefined)
CCOc1cc2c(cc1OCC)C(c1ccccc1OC)OC(=O)C2 (centres undefined)
COCc1ccc([C@@H]2C[C@H]3CN(Cc4cccnc4)C(=O)[C@]34CCCN24)o1
